Some of the results follow. Single values are uncertain, as repeats are few or missing.
Columns and labels:
Experiment in all cases: cell count relative to DMSO control; melanoma cells; higher = more viable cells
Conditions in all cases: library dose: standard library concentration; 72 h
SkMel28 = system: SkMel28
SkMel30 = system: SkMel30
SkMel5 = system: SkMel5
UACC257 = system: UACC257
UACC62 = system: UACC62
WM115 = system: WM115
WM1716 = system: WM1716
WM1745 = system: WM1745
WM3526 = system: WM3526
SkMel2 = system: SkMel2
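Also: cells treated in 1,536-well plates, then fixed and DAPI-stained, with nuclei counted from automated high-throughput microscope images.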

SMILES | cell count (SkMel28) [%] | cell count (SkMel30) [%] | cell count (SkMel5) [%] | cell count (UACC257) [%] | cell count (UACC62) [%] | cell count (WM115) [%] | cell count (WM1716) [%] | cell count (WM1745) [%] | cell count (WM3526) [%] | cell count (SkMel2) [%]
C=C(c1ccc(C(=O)O)cc1)c1cc2c(cc1C)C(C)(C)CCC2(C)C [Bexarotene] + C[C@@H]1CCN(C(=O)CC#N)C[C@@H]1N(C)c1ncnc2[nH]ccc12 [CP690550] (first compound 10 µM, partner dose 5 µM) | 84.1 | 101 | 98.4 | 85.3 | 95.4 | 104 | 87.8 | 79.1 | 81.2 | –
NC1(c2ccc(-c3nc4ccn5c(=O)[nH]nc5c4cc3-c3ccccc3)cc2)CCC1 + CC(C)CCN1c2nc(Nc3cc(F)c(O)c(F)c3)ncc2N(C)C(=O)C1C [BID1870] (first compound 2 µM, partner dose 1 µM) | 46 | 78.1 | 70.5 | 75 | 79.8 | 71.7 | 76.1 | – | 64.9 | 57.4
CN(c1ncccc1CNc1nc(Nc2ccc3c(c2)CC(=O)N3)ncc1C(F)(F)F)S(C)(=O)=O + CCN(CC)CCCCNc1ncc2cc(-c3cc(OC)cc(OC)c3)c(NC(=O)NC(C)(C)C)nc2n1 [PD173074] (first compound 0.4 µM, partner dose 0.5 µM) | 71.9 | 92 | 78.6 | 77.9 | 73.7 | 77.9 | 98.3 | – | 101 | 80.9
CN(c1ncccc1CNc1nc(Nc2ccc3c(c2)CC(=O)N3)ncc1C(F)(F)F)S(C)(=O)=O + O=c1cc(-c2cccc3c2Sc2ccccc2S3)oc(N2CCOCC2)c1 [KU55933] (first compound 0.4 µM, partner dose 5 µM) | 87.6 | 116 | 85.1 | 84.7 | 103 | 83.7 | 84.7 | – | 80 | 92.4
C=C(c1ccc(C(=O)O)cc1)c1cc2c(cc1C)C(C)(C)CCC2(C)C [Bexarotene] + COc1cc2ncnc(Nc3ccc(Oc4ccccc4)cc3)c2cc1OC [SrcI1] (first compound 10 µM, partner dose 10 µM) | 64.6 | 110 | 62.2 | 98 | 88.8 | 94.9 | 68.6 | – | 65.3 | 80.9
NC1(c2ccc(-c3nc4ccn5c(=O)[nH]nc5c4cc3-c3ccccc3)cc2)CCC1 + O=C(Nc1ccccc1)c1cc([N+](=O)[O-])ccc1Cl [GW9662] (first compound 2 µM, partner dose 10 µM) | 42.1 | 102 | 54 | 73.9 | 70.1 | 58.1 | 71.6 | – | 62.1 | 61.3
CN(c1ncccc1CNc1nc(Nc2ccc3c(c2)CC(=O)N3)ncc1C(F)(F)F)S(C)(=O)=O + COc1cc2c(Oc3ccc4[nH]c(C)cc4c3F)ncnc2cc1OCCCN1CCCC1 [cediranib] (first compound 0.4 µM, partner dose 2 µM) | 78.5 | 100 | 55.8 | 79.9 | 71.7 | 66 | 79.9 | 61 | 96.8 | –
CCCS(=O)(=O)Nc1ccc(F)c(C(=O)c2c[nH]c3ncc(Cl)cc23)c1F + COc1ccc(COc2ccc(Cc3cnc(N)nc3N)cc2OC)cc1 [GW2580] (first compound 0.4 µM, partner dose 5 µM) | 52.8 | 116 | 67 | 86.5 | 60.3 | 74.9 | 65.9 | – | 74.2 | 103
CCCS(=O)(=O)Nc1ccc(F)c(C(=O)c2c[nH]c3ncc(Cl)cc23)c1F + O=C1NC(=O)/C(=C/c2ccc(-c3ccc(F)cc3O)o2)S1 [AS252424] (first compound 0.4 µM, partner dose 5 µM) | 55.3 | 99.7 | 65.6 | 83.7 | 66.1 | 77.6 | 71.1 | – | 66.2 | 97.6
C=C(c1ccc(C(=O)O)cc1)c1cc2c(cc1C)C(C)(C)CCC2(C)C [Bexarotene] + N#Cc1c(O)c2c(-c3ccc(-c4ccccc4O)cc3)csc2[nH]c1=O [A769662] (first compound 10 µM, partner dose 10 µM) | 70.7 | 105 | 93 | 87.6 | 99.5 | 88.5 | 72.5 | – | 85.6 | 82.5
CCCS(=O)(=O)Nc1ccc(F)c(C(=O)c2c[nH]c3ncc(Cl)cc23)c1F + O=c1cc(-c2cccc3c2Sc2ccccc2S3)oc(N2CCOCC2)c1 [KU55933] (first compound 0.4 µM, partner dose 5 µM) | 49.4 | 96 | 69.3 | 85.8 | 42.7 | 51.1 | 58.8 | – | 55 | 88.2
